# From the BET-seq Pho4 binding data (Le et al. 2018)
# The other results are listed elsewhere or left out. The energies were worked out here from pooled read counts, against the library average; single values are noisy.
# Molecular target: T1, Pho4 (S. cerevisiae) (UniProt P07270)
# T1 sequence: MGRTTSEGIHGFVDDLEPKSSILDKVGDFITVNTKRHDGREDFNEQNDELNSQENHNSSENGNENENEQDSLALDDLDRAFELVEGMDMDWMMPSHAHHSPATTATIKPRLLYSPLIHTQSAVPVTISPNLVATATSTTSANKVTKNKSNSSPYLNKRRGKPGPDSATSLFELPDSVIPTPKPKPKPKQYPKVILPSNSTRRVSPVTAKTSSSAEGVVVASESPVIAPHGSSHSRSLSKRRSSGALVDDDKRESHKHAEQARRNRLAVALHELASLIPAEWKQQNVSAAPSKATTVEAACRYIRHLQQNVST
# Assay: relative binding free energy (BET-seq); higher = weaker binding
# Conditions: reference: library average
row,Sequence,relative binding free energy
1,GATTTCACGTGAGTTT,0.49 kcal/mol
2,GCGGTCACGTGGGTCG,0.03 kcal/mol
3,GAAGACACGTGGTGTT,-0.05 kcal/mol
4,AGAAACACGTGAGTGG,0.23 kcal/mol
5,GTTGTCACGTGCATAG,0.27 kcal/mol
6,ATCAGCACGTGCGGTG,-0.12 kcal/mol
7,TATTCCACGTGATGGG,0.06 kcal/mol
8,TAAGTCACGTGTTGGA,0.14 kcal/mol
9,GTTATCACGTGAGGGA,0.19 kcal/mol
10,TCTGGCACGTGTGCGA,0.03 kcal/mol
11,AGTAACACGTGGGTTA,-0.12 kcal/mol
12,AGTATCACGTGAACGG,0.25 kcal/mol
13,TGTGTCACGTGAGGGC,0.3 kcal/mol
14,ACTGACACGTGTGTTG,-0.04 kcal/mol
15,AGGGGCACGTGAGGCG,0.07 kcal/mol
16,TAGGTCACGTGGGATC,0.07 kcal/mol
17,TGTGCCACGTGGGCTA,-0.35 kcal/mol
18,GTTAGCACGTGGTGCA,-0.04 kcal/mol
19,TAGCGCACGTGGGGAG,-0.2 kcal/mol
20,CGTAGCACGTGGGGTA,-0.23 kcal/mol
21,CCGGTCACGTGGGTAA,0.05 kcal/mol
22,TAGAGCACGTGGGTAG,-0.17 kcal/mol
23,GGTTCCACGTGTCGGG,0.16 kcal/mol
24,AGGTTCACGTGCTGGC,0.24 kcal/mol
25,GATTACACGTGTTTTA,0.1 kcal/mol
26,AGGGTCACGTGTGGGT,0.13 kcal/mol

row,Sequence,relative binding free energy
1,TGTTACACGTGTGACG,0.09 kcal/mol
2,CTTAACACGTGATGTG,0.22 kcal/mol
3,CATTTCACGTGGGTTT,0.21 kcal/mol
4,TTATGCACGTGCGATA,0.01 kcal/mol
5,TGCAACACGTGTATGG,-0.06 kcal/mol
6,CGTGGCACGTGGGGAC,-0.32 kcal/mol
7,AGTGTCACGTGATAGT,0.34 kcal/mol
8,CGTGTCACGTGGAGTG,0.1 kcal/mol
9,AGGGGCACGTGCCGTT,-0.19 kcal/mol
10,TATAGCACGTGATTGT,0.22 kcal/mol
11,TTGCACACGTGAGGTT,0.16 kcal/mol
12,TCATGCACGTGTGAGT,-0.05 kcal/mol
13,AACTTCACGTGGGGTA,0.01 kcal/mol
14,ATAATCACGTGAAGGT,0.28 kcal/mol
15,GTACGCACGTGTGGAG,-0.11 kcal/mol
16,TGGACCACGTGGTGTA,-0.17 kcal/mol
17,AGATGCACGTGACTGT,0.23 kcal/mol
18,GGGAGCACGTGTATTC,0.13 kcal/mol
19,ATTATCACGTGTAATA,0.18 kcal/mol
20,AGGTTCACGTGCTGTA,0.15 kcal/mol
21,TATTGCACGTGACGTT,-0.01 kcal/mol
22,CTTGTCACGTGGTGTA,-0.02 kcal/mol
23,TTGGGCACGTGGTGAA,-0.11 kcal/mol
24,GGGGGCACGTGAGTGT,0.26 kcal/mol
25,CTTTTCACGTGGTTGC,0.35 kcal/mol
26,ATTGGCACGTGCTTGG,-0.08 kcal/mol

row,Sequence,relative binding free energy
1,TTGAACACGTGTGTCT,0.04 kcal/mol
2,GTGACCACGTGGTATG,-0.11 kcal/mol
3,ATATGCACGTGCGGTA,-0.04 kcal/mol
4,ACGTGCACGTGGATTT,-0.05 kcal/mol
5,AGGGCCACGTGACGTG,-0.08 kcal/mol
6,TTTGGCACGTGAGAAT,0.08 kcal/mol
7,CGTAACACGTGGTGAA,0.05 kcal/mol
8,CTTGGCACGTGGCATG,-0.25 kcal/mol
9,GGAATCACGTGGGTAG,0.06 kcal/mol
10,TACTGCACGTGGTTGC,-0.04 kcal/mol
11,TAAGGCACGTGAGGCA,0.17 kcal/mol
12,TGGCACACGTGAAAGT,0.24 kcal/mol
13,TTTGTCACGTGGCTGG,0.15 kcal/mol
14,CTTTGCACGTGGCGGC,-0.02 kcal/mol
15,AGAGTCACGTGCTGGA,0.08 kcal/mol
16,GTTATCACGTGCGTCT,0.12 kcal/mol
17,GTTGGCACGTGTATTT,0.15 kcal/mol
18,CGTGACACGTGGGTGT,-0.24 kcal/mol
19,TATGTCACGTGAGCTG,0.16 kcal/mol
20,TGGTTCACGTGCCTGG,0.19 kcal/mol
21,TTATGCACGTGATAAT,-0.08 kcal/mol
22,ATGGTCACGTGTTCGA,0.11 kcal/mol
23,TTAGACACGTGGTGTC,-0.11 kcal/mol
24,TGGCGCACGTGGGTAA,-0.18 kcal/mol
25,TTGGACACGTGGGTGG,-0.04 kcal/mol
26,GTGGCCACGTGTTGTC,0.09 kcal/mol

row,Sequence,relative binding free energy
1,TGTCGCACGTGTTATA,-0.09 kcal/mol
2,CGGGCCACGTGCGGGT,-0.23 kcal/mol
3,TCTGGCACGTGTTTTA,-0.06 kcal/mol
4,ATTCTCACGTGGTTGG,0.11 kcal/mol
5,TAAAGCACGTGATTAG,0.04 kcal/mol
6,AGATTCACGTGGGCAG,0.14 kcal/mol
7,TGATGCACGTGGGCCG,-0.15 kcal/mol
8,CGTGTCACGTGAGTCA,0.24 kcal/mol
9,GGGCTCACGTGCGAGG,0.18 kcal/mol
10,TTAGGCACGTGCCGTG,-0.26 kcal/mol
11,TAGTACACGTGATGAG,0.17 kcal/mol
12,GTCTGCACGTGTGCTG,0.1 kcal/mol
13,AGGTACACGTGGATAT,-0.02 kcal/mol
14,GGAGGCACGTGCTTAG,-0.16 kcal/mol
15,TGGCTCACGTGCCGGT,0.22 kcal/mol
16,ATGGACACGTGGCGGG,0.06 kcal/mol
17,GTTCTCACGTGTAGTG,0.16 kcal/mol
18,GGGGGCACGTGCGCAT,-0.22 kcal/mol
19,GGACGCACGTGATGTG,0.18 kcal/mol
20,GGACACACGTGGTGTA,0.06 kcal/mol
21,GGGAGCACGTGATTCG,0.09 kcal/mol
22,GTGACCACGTGGTAGT,-0.08 kcal/mol
23,TGGGTCACGTGTCTTA,0.06 kcal/mol
24,TTGAGCACGTGGTAGT,-0.16 kcal/mol
25,CGGTACACGTGGTAAT,0.12 kcal/mol
26,ATGGGCACGTGGAAAA,0.04 kcal/mol

row,Sequence,relative binding free energy
1,TGCTGCACGTGGGGCT,-0.17 kcal/mol
2,TCGGACACGTGGGCGT,-0.22 kcal/mol
3,GCTGTCACGTGGCGTG,0.07 kcal/mol
4,ATGTACACGTGGATGG,-0.05 kcal/mol
5,ATTGACACGTGGTTTG,-0.06 kcal/mol
6,TGTATCACGTGAAGTA,0.24 kcal/mol
7,AAGGGCACGTGAAGTA,0.06 kcal/mol
8,GGGGGCACGTGTTCTT,-0.09 kcal/mol
9,AGGGGCACGTGTACTA,-0.24 kcal/mol
10,AACTTCACGTGATTTT,0.41 kcal/mol
11,TTATGCACGTGGGTAT,-0.15 kcal/mol
12,TAGTTCACGTGGGAAT,0.24 kcal/mol
13,TGGTTCACGTGGCAGG,0.15 kcal/mol
14,AGTGACACGTGCGGTT,-0.03 kcal/mol
15,ATGACCACGTGTTAGG,0 kcal/mol
16,CATATCACGTGAGTTT,0.24 kcal/mol
17,GGAGTCACGTGCTGAG,0.08 kcal/mol
18,TAGATCACGTGGTGGA,0.08 kcal/mol
19,AAGAGCACGTGTACGT,0.01 kcal/mol
20,TTAGGCACGTGTCGGT,-0.12 kcal/mol
21,AAAAGCACGTGTATGG,0.1 kcal/mol
22,AGTGGCACGTGTTCGA,-0.06 kcal/mol
23,GGAAACACGTGGTGTC,0.02 kcal/mol
24,GTTTGCACGTGACGCT,0.21 kcal/mol
25,ACAGGCACGTGTAGTG,-0.02 kcal/mol
26,GGTCGCACGTGCAGTT,0.01 kcal/mol

row,Sequence,relative binding free energy
1,TAGGGCACGTGCACGT,-0.16 kcal/mol
2,TTGGTCACGTGAACTG,0.27 kcal/mol
3,CGGGCCACGTGGGGTC,-0.12 kcal/mol
4,TTTAGCACGTGCTTAG,-0.06 kcal/mol
5,TCGGTCACGTGTTGAT,0.12 kcal/mol
6,TAGGGCACGTGGCGTT,-0.17 kcal/mol
7,TTTGACACGTGTTCGG,-0.05 kcal/mol
8,CCGTTCACGTGTGTGG,0.26 kcal/mol
9,CCTGGCACGTGTGTGG,-0.15 kcal/mol
10,AATCACACGTGGTTAG,0.08 kcal/mol
11,TTATTCACGTGGGGCC,0.07 kcal/mol
12,TCCGGCACGTGGTGTA,-0.19 kcal/mol
13,TTGAGCACGTGTCGGG,-0.12 kcal/mol
14,AAAGGCACGTGGTGCA,-0.16 kcal/mol
15,ATGTACACGTGATTCG,0.21 kcal/mol
16,TAAGTCACGTGACTGT,0.3 kcal/mol
17,TCTGTCACGTGGTAGC,0.15 kcal/mol
18,TAGTGCACGTGGTCAT,-0.25 kcal/mol
19,TACGGCACGTGGGGAA,-0.2 kcal/mol
20,TATAACACGTGTGTGA,-0.04 kcal/mol
21,CATTCCACGTGGGGGG,-0.12 kcal/mol
22,ATCAGCACGTGTGCGG,-0.02 kcal/mol
23,GTATACACGTGCTAAG,0.18 kcal/mol
24,GGGCCCACGTGAGGGG,0.05 kcal/mol
25,CAGGTCACGTGTTTGG,0.04 kcal/mol
26,TCAAGCACGTGGTAGT,-0.07 kcal/mol

row,Sequence,relative binding free energy
1,GTGTTCACGTGATTCG,0.46 kcal/mol
2,TGTGTCACGTGGGACT,-0.03 kcal/mol
3,GCCTTCACGTGTAGGG,0.22 kcal/mol
4,GAGCGCACGTGGATTG,0.02 kcal/mol
5,GAGTCCACGTGTTGTG,0.09 kcal/mol
6,ATTAACACGTGTGATC,0.26 kcal/mol
7,TGGAGCACGTGCGTGT,-0.21 kcal/mol
8,GTTCTCACGTGGGATA,0.11 kcal/mol
9,GTAGTCACGTGGTGTC,0.11 kcal/mol
10,CTAATCACGTGTATAT,0.22 kcal/mol
11,GGCGGCACGTGGATTG,0 kcal/mol
12,TATTCCACGTGTGCGG,0.09 kcal/mol
13,TGTAACACGTGTCTAG,0.06 kcal/mol
14,TGTTCCACGTGGTGTC,0.02 kcal/mol
15,TCAGTCACGTGTTGGG,0.15 kcal/mol
16,GGTGACACGTGTAAAT,0.17 kcal/mol
17,TTGCGCACGTGGATGA,-0.1 kcal/mol
18,ATTGTCACGTGGGTGA,-0.08 kcal/mol
19,TTAAGCACGTGGTTAT,-0.07 kcal/mol
20,GTATACACGTGCAGTT,-0.01 kcal/mol
21,TGTTACACGTGGGTGT,-0.02 kcal/mol
22,TGTGTCACGTGCAAAG,0.01 kcal/mol
23,GGGGGCACGTGTGCTA,-0.06 kcal/mol
24,ACGGGCACGTGTTTGA,-0.06 kcal/mol
25,ACTGTCACGTGAGATG,0.35 kcal/mol
26,GGGTGCACGTGTCGAA,0.1 kcal/mol

row,Sequence,relative binding free energy
1,TGTTCCACGTGTTGTG,0.04 kcal/mol
2,TGGTGCACGTGTTTCT,0.02 kcal/mol
3,ACAGTCACGTGTGGGA,0.1 kcal/mol
4,AGGTACACGTGATGAG,0.15 kcal/mol
5,CGCTGCACGTGGGGTG,-0.3 kcal/mol
6,GGTGCCACGTGTAAGT,-0.02 kcal/mol
7,TGAAGCACGTGGCTGT,-0.17 kcal/mol
8,AAATTCACGTGAGATT,0.31 kcal/mol
9,GTTGGCACGTGTTATT,0.07 kcal/mol
10,ATCTTCACGTGGTTTG,0.28 kcal/mol
11,CGTGACACGTGGAGTT,0.04 kcal/mol
12,AGGTACACGTGGTCTG,-0.03 kcal/mol
13,CGAGGCACGTGTTGCG,0 kcal/mol
14,AGAGGCACGTGGCATG,-0.3 kcal/mol
15,ATCGGCACGTGGTTTG,-0.07 kcal/mol
16,CTGAGCACGTGAGGTG,0.06 kcal/mol
17,TTCTTCACGTGTCGTA,0.12 kcal/mol
18,TTCTTCACGTGTAATT,0.19 kcal/mol
19,AGGTACACGTGGTGCA,-0.13 kcal/mol
20,GGGGGCACGTGACTTA,0 kcal/mol
21,GCACTCACGTGGTGGA,0.3 kcal/mol
22,GGTAGCACGTGGAGGC,-0.06 kcal/mol
23,TGAGTCACGTGGGCGC,0.01 kcal/mol
24,GGGGGCACGTGTAGAG,-0.14 kcal/mol
25,TCAGGCACGTGTTATG,0.06 kcal/mol
26,TCTTACACGTGAGGTA,0.33 kcal/mol

row,Sequence,relative binding free energy
1,TCGTTCACGTGAGGAT,0.44 kcal/mol
2,TGTTTCACGTGTATGT,0.14 kcal/mol
3,GTAGGCACGTGAGGCT,0.18 kcal/mol
4,TGGTTCACGTGGCGGA,0.31 kcal/mol
5,TGCTTCACGTGGGTAT,0.18 kcal/mol
6,GGGAACACGTGTAAGT,0.33 kcal/mol
7,TATTACACGTGAATGC,0.49 kcal/mol
8,TTTGTCACGTGATGCA,0.12 kcal/mol
9,ATTATCACGTGGAGGT,0.18 kcal/mol
10,TCGTACACGTGATAGG,0.19 kcal/mol
11,ATTCGCACGTGGTAAG,-0.04 kcal/mol
12,AGTACCACGTGTGGTG,-0.19 kcal/mol
13,CCAGTCACGTGGGGGA,0 kcal/mol
14,ATGGTCACGTGCGATT,-0.04 kcal/mol
15,TTCGTCACGTGTCTGG,0.09 kcal/mol
16,GGAATCACGTGGCGTG,0.07 kcal/mol
17,GGTTGCACGTGCTTGC,-0.02 kcal/mol
18,GACGGCACGTGGTAGG,-0.02 kcal/mol
19,TTCGTCACGTGAAATT,0.25 kcal/mol
20,AGGCACACGTGTGGAG,0.04 kcal/mol
21,TGTACCACGTGATTGT,0.05 kcal/mol
22,AAGGGCACGTGTTAGA,-0.03 kcal/mol
